These results are taken from article doi:10.1101/2024.11.07.622398 (bioRxiv, 2024).

The experiment addresses T1, His-GST-tagged human UBA1 (human, UniProt P22314 1-1058).
T1 sequence (looked up): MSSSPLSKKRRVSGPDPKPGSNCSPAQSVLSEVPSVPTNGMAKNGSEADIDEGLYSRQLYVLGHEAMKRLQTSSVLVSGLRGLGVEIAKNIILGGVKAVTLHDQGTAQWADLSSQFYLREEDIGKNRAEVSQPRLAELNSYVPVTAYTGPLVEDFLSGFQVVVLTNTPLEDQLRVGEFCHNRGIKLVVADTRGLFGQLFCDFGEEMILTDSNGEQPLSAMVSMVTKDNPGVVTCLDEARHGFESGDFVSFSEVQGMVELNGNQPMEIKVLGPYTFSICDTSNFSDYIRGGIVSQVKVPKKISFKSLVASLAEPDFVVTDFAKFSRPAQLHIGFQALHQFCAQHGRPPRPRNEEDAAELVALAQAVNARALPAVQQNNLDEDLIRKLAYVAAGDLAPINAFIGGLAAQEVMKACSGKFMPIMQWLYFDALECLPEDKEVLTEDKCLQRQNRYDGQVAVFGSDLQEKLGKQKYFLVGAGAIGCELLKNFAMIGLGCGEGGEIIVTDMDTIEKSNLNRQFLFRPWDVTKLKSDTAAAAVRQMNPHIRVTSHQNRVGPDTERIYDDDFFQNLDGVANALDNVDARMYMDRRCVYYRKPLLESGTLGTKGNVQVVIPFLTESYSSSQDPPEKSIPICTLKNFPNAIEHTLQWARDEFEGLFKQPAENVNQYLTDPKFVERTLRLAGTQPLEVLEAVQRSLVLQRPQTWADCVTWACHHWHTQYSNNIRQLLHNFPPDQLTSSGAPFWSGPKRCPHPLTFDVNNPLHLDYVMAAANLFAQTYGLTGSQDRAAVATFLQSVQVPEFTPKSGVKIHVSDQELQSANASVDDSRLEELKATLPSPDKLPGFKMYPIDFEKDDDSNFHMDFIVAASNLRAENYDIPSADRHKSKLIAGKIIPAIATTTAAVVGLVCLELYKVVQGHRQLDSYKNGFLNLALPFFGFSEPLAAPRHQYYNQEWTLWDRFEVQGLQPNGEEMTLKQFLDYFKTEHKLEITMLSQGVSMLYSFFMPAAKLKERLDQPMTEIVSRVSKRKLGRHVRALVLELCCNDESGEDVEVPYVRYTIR
As to the kind of experiment: BLI.

B1: human UBE2L3(C86A) (enzyme)
chain: not shown
As usually defined, the Kd is the constant that tells how readily two partners part at equilibrium. B1 came in with a Kd of 16.8 µM.
